Test results published in the supplement of paper PMC8948288.
The sequences are guide strands of siRNAs; only the seed at positions 2 to 7 varies.

Columns and labels:
H4 = assay: cell viability relative to siNT1 (ATP content); H4 human neuroglioma and GL261 mouse glioma; higher = less toxic; details: siRNA concentration 10 nM; 96 h; human
GL261 = assay: as above; details: siRNA concentration 25 nM; 96 h; mouse
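Further: cells reverse transfected with siRNA duplexes via lipid reagent, ATP read by luminescence, triplicate wells, values scaled to mean viability with non-targeting control siNT1.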

| Sequence | cell viability (H4) [%] | cell viability (GL261) [%] |
| --- | --- | --- |
| UUCCUCGACAUGUAAACCA | 104 | 49.1 |
| UUCCUCUACAUGUAAACCA | 63.3 | 30.2 |
| UUCCUGAACAUGUAAACCA | 107 | 42.5 |
| UUCCUGCACAUGUAAACCA | 51.9 | 11.4 |
| UUCCUGGACAUGUAAACCA | 76.9 | 21.6 |
| UUCCUGUACAUGUAAACCA | 41.2 | 15.2 |
| UUCCUUAACAUGUAAACCA | 110 | 53.1 |
| UUCCUUCACAUGUAAACCA | 51.5 | 19.2 |
| UUCCUUGACAUGUAAACCA | 118 | 37.9 |
| UUCCUUUACAUGUAAACCA | 96.8 | 42.6 |
| UUCGAAAACAUGUAAACCA | 83.9 | 73.6 |
| UUCGAACACAUGUAAACCA | 90.2 | 72.5 |
| UUCGAAGACAUGUAAACCA | 77.7 | 70.7 |
| UUCGAAUACAUGUAAACCA | 85.4 | 76.8 |
| UUCGACAACAUGUAAACCA | 91.7 | 61.1 |
| UUCGACCACAUGUAAACCA | 93.4 | 35.6 |
| UUCGACGACAUGUAAACCA | 91 | 58.1 |
| UUCGACUACAUGUAAACCA | 60.8 | 53.7 |
| UUCGAGAACAUGUAAACCA | 106 | 51.1 |
| UUCGAGCACAUGUAAACCA | 17.1 | 57.2 |
| UUCGAGGACAUGUAAACCA | 99.8 | 45.7 |
| UUCGAGUACAUGUAAACCA | 103 | 38.8 |

| Sequence | cell viability (H4) [%] | cell viability (GL261) [%] |
| --- | --- | --- |
| UUCGAUAACAUGUAAACCA | 108 | 57.4 |
| UUCGAUCACAUGUAAACCA | 79.9 | 59.5 |
| UUCGAUGACAUGUAAACCA | 108 | 61.3 |
| UUCGAUUACAUGUAAACCA | 79.1 | 69.8 |
| UUCGCAAACAUGUAAACCA | 109 | 47.2 |
| UUCGCACACAUGUAAACCA | 83.3 | 48.3 |
| UUCGCAGACAUGUAAACCA | 118 | 37.5 |
| UUCGCAUACAUGUAAACCA | 81.1 | 44 |
| UUCGCCAACAUGUAAACCA | 99.2 | 46.5 |
| UUCGCCCACAUGUAAACCA | 72 | 53.4 |
| UUCGCCGACAUGUAAACCA | 112 | 67.8 |
| UUCGCCUACAUGUAAACCA | 86.9 | 26.7 |
| UUCGCGAACAUGUAAACCA | 119 | 66.7 |
| UUCGCGCACAUGUAAACCA | 107 | 23.9 |
| UUCGCGGACAUGUAAACCA | 116 | 56.5 |
| UUCGCGUACAUGUAAACCA | 112 | 66.8 |
| UUCGCUAACAUGUAAACCA | 91.8 | 71.6 |
| UUCGCUCACAUGUAAACCA | 115 | 46.3 |
| UUCGCUGACAUGUAAACCA | 118 | 66.4 |
| UUCGCUUACAUGUAAACCA | 102 | 54.6 |
| UUCGGAAACAUGUAAACCA | 93.1 | 69 |
| UUCGGACACAUGUAAACCA | 51 | 11.9 |

| Sequence | cell viability (H4) [%] | cell viability (GL261) [%] |
| --- | --- | --- |
| UUCGGAGACAUGUAAACCA | 95.5 | 39.6 |
| UUCGGAUACAUGUAAACCA | 84.4 | 53.1 |
| UUCGGCAACAUGUAAACCA | 106 | 44.9 |
| UUCGGCCACAUGUAAACCA | 70.1 | 28.3 |
| UUCGGCGACAUGUAAACCA | 97.8 | 37.4 |
| UUCGGCUACAUGUAAACCA | 65.7 | 42.1 |
| UUCGGGAACAUGUAAACCA | 103 | 84.6 |
| UUCGGGCACAUGUAAACCA | 31.2 | 12.3 |
| UUCGGGGACAUGUAAACCA | 38.8 | 57 |
| UUCGGGUACAUGUAAACCA | 46.8 | 25.3 |
| UUCGGUAACAUGUAAACCA | 95.4 | 48.4 |
| UUCGGUCACAUGUAAACCA | 51 | 37.4 |
| UUCGGUGACAUGUAAACCA | 102 | 61.5 |
| UUCGGUUACAUGUAAACCA | 85.6 | 26.5 |
| UUCGUAAACAUGUAAACCA | 92.6 | 48.6 |
| UUCGUACACAUGUAAACCA | 78 | 56.3 |
| UUCGUAGACAUGUAAACCA | 113 | 71 |
| UUCGUAUACAUGUAAACCA | 83.6 | 28.3 |
| UUCGUCAACAUGUAAACCA | 115 | 71.6 |
| UUCGUCCACAUGUAAACCA | 67.5 | 46.5 |
| UUCGUCGACAUGUAAACCA | 110 | 85.3 |
| UUCGUCUACAUGUAAACCA | 96.7 | 35.4 |

| Sequence | cell viability (H4) [%] | cell viability (GL261) [%] |
| --- | --- | --- |
| UUCGUGAACAUGUAAACCA | 94.7 | 66.4 |
| UUCGUGCACAUGUAAACCA | 20.4 | 26.6 |
| UUCGUGGACAUGUAAACCA | 68.6 | 44.1 |
| UUCGUGUACAUGUAAACCA | 122 | 42.1 |
| UUCGUUAACAUGUAAACCA | 105 | 68.6 |
| UUCGUUCACAUGUAAACCA | 91.9 | 30 |
| UUCGUUGACAUGUAAACCA | 102 | 49.9 |
| UUCGUUUACAUGUAAACCA | 93.2 | 39.9 |
| UUCUAAAACAUGUAAACCA | 96.4 | 68.1 |
| UUCUAACACAUGUAAACCA | 78.9 | 53.8 |
| UUCUAAGACAUGUAAACCA | 101 | 61.4 |
| UUCUAAUACAUGUAAACCA | 103 | 50.2 |
| UUCUACAACAUGUAAACCA | 93.1 | 65.7 |
| UUCUACCACAUGUAAACCA | 26.2 | 30.1 |
| UUCUACGACAUGUAAACCA | 87.4 | 75.8 |
| UUCUACUACAUGUAAACCA | 62.1 | 26.3 |
| UUCUAGAACAUGUAAACCA | 102 | 59.9 |
| UUCUAGCACAUGUAAACCA | 42.5 | 17.9 |
| UUCUAGGACAUGUAAACCA | 62.1 | 35 |
| UUCUAGUACAUGUAAACCA | 56.1 | 36.2 |
